# According to publication PMC4336329 (PLoS ONE, 2015):
# Out of some 310,000 compounds screened, about 14,000 (4.5%) showed an effect of 50% or more. Effects have a minus sign here. The list shows a part of the results.
# Target: human ether-à-go-go-related gene (hERG) potassium channel (human, UniProt Q12809)
# Assay: primary screen, population patch clamp on CHO cells stably expressing hERG
# 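Note: peak tail current of the secondary pulse compared with the same well before compound.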
# Chain of human ether-à-go-go-related gene (hERG) potassium channel (Q12809 whole entry, looked up): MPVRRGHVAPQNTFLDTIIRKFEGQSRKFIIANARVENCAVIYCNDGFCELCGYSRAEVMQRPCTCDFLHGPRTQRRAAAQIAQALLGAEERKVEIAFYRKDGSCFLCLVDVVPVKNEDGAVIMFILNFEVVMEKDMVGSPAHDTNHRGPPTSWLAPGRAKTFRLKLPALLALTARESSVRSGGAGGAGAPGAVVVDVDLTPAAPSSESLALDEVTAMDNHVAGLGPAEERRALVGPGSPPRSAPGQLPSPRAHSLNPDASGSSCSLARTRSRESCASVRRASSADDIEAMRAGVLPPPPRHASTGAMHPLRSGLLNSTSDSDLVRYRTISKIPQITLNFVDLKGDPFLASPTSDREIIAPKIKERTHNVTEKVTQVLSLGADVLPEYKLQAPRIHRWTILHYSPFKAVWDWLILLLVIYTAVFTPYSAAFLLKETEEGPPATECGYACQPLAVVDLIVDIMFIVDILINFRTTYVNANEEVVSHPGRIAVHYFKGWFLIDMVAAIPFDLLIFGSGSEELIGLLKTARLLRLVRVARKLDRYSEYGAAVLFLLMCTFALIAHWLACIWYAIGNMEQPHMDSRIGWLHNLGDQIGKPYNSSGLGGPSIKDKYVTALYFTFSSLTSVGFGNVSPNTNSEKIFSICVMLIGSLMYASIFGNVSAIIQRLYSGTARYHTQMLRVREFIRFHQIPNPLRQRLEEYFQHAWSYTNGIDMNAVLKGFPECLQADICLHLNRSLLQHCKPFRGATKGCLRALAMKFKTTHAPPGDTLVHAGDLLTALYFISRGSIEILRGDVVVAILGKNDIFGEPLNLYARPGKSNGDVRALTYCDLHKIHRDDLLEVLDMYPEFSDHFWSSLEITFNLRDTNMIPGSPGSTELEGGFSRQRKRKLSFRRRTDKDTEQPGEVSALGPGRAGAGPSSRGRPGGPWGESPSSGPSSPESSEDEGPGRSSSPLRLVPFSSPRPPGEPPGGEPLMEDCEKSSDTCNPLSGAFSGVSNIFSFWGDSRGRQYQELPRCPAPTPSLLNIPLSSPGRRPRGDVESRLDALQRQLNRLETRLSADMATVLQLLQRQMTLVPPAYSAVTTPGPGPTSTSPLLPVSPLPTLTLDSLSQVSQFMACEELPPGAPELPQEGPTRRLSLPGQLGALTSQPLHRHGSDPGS
row,SMILES,"hERG current change (%, negative = inhibition) at 10uM [%]"
1,O=C(CNC(=O)c1ccco1)N/N=C/c1ccccc1[N+](=O)[O-],8.7
2,CCOC(=O)CC(NC(=O)c1ccc(C)cc1)c1ccc(OC)cc1 (stereo not drawn),14.3
3,Cc1cccc(N2CCN(CCCNC(=O)c3ccc(NC(=O)C4=CSCCO4)cc3)CC2C)c1 (stereo not drawn),-47.3
4,COc1cccc(NC(=O)CN(C2=NC3CS(=O)(=O)CC3S2)c2cccc(C)c2)c1 (stereo not drawn),-24.4
5,CC(C)(C)NC(=O)NC(=O)COC(=O)Cc1c(Cl)cccc1Cl,-11.3
6,CN=C1SC(CC(=O)Nc2cccc(C(F)(F)F)c2)C(=O)N1C (stereo not drawn),-2.47
7,O=C(COc1ccc(Cl)cc1)NCCN1CCCCC1,-40
8,CC1CCCCN1Cc1ccc(-c2nnn(CC(=O)NC3CCCCC3)n2)cc1 (stereo not drawn),-0.223
9,COc1ccc(NS(=O)(=O)c2ccc(N3CCN(CCO)CC3)c([N+](=O)[O-])c2)cc1,19
10,CN(CC(=O)Nc1ccc(F)cc1)C(=O)COC(=O)CSc1ccc(F)cc1,-16
11,Fc1ccc(-n2c(-c3ccc4c(c3)OCO4)n[nH]c2=S)cc1Cl,9.05
12,COc1ccc(C(=O)NNC(=O)c2cnccn2)cc1[N+](=O)[O-],-1.7
13,COC(=O)c1ccc2nc(NC(=O)CN3C(=O)CCC3=O)sc2c1,3.67
14,CC1(C)Cc2c(sc(NC(=O)C(=O)N3CCCC3)c2C(N)=O)CO1,5.08
15,Cc1cccc(C(=O)Nc2onc(C)c2C#N)c1,9.49
16,COc1cc(C(c2nnnn2C2CCCC2)N2CCN(C(=O)c3ccco3)CC2)cc(OC)c1OC.Cl (stereo not drawn),-4.24
17,O=C(N/N=C/c1ccc2c(c1)OCO2)c1cc(-c2ccccc2)nc2ccccc12,24.4
18,CCOc1ccccc1C1CC(c2cccs2)=NN1S(C)(=O)=O (stereo not drawn),-3.48
19,CCOCCc1c(O)nc(SCC(=O)NCc2ccco2)[nH]c1=O,15.5
20,CN(CC(O)COc1ccc(S(=O)(=O)N2CCOCC2)cc1Cl)C1CCCCC1.Cl (stereo not drawn),-30
21,CCN(CC(=O)Nc1ccc(NC(C)=O)cc1)C(=O)c1ccccc1CCc1ccccc1,4.01
22,COc1ccc(NC(=O)NCc2ccccn2)c(OC)c1,9.17

row,SMILES,"hERG current change (%, negative = inhibition) at 10uM [%]"
1,S=C(Nc1ccc2nccnc2c1)N1CCOCC1,10.6
2,CCOC(=O)N1CCN(C(=O)CCl)CC1,16.4
3,O=C(N/C(=C/c1ccco1)C(=O)N1CCCCCC1)c1ccccc1,13.2
4,O=C(NC1CCCN(Cc2ccccc2F)C1)c1cccc(N2CCCC2=O)c1 (stereo not drawn),4.16
5,O=C(CCS(=O)(=O)c1cc(Br)cc2c1N(C(=O)C1CC1)CC2)N1CCN(c2ccccn2)CC1,-8.14
6,CCOC(=O)c1cc2c(n(-c3ccc(Cl)cc3)c1=O)CCCC2=O,-33.6
7,CSc1ncccc1C(=O)OCC(=O)NC1CCC(C)CC1 (stereo not drawn),0.646
8,COc1ccc(CCNc2cc(-c3ccccc3)nc3ncnn23)cc1,-2.18
9,CC1=CC(=O)N(c2ccc(C)cc2)C1c1ccc(Cl)cc1 (stereo not drawn),-8.48
10,COc1ccc(S(=O)(=O)N2CCCC(C(=O)N3CCN(c4ccccc4)CC3)C2)cc1Cl (stereo not drawn),-62
11,O=C(NCCc1ccccc1)C1CCCN1S(=O)(=O)c1cccc2nsnc12 (stereo not drawn),-6.32
12,COc1ccc(NC2CCCN(C(=O)CCc3cccc(F)c3)C2)cc1 (stereo not drawn),-2.67
13,CC(=O)Nc1ccc(N/C(C)=C/C(=O)c2cccnc2)cc1,-7.53
14,Cc1ccc(CN2CCN(CCCc3ccccc3)CC2CCO)cc1 (stereo not drawn),-76.4
15,Cc1ccc(N(CC(=O)N/N=C/c2ccc(OC3CSC3)cc2)S(=O)(=O)c2ccccc2)cc1,-11.4
16,Cc1ccc(-c2c[n+](CC(=O)c3cccs3)c3n2CCC3)cc1.[Br-],5.08
17,CC(=O)Nc1ccccc1C(=O)C(=O)Nc1cccc(C(=O)NCc2ccc(C)cc2)c1,-58.3
18,CC(SCc1cc(=O)n2c([nH]c3ccccc32)c1C#N)C(=O)O (stereo not drawn),16.3
19,O=C(NCCc1c[nH]c2ccccc12)c1ccc(Cl)cc1,-12.7
20,Cc1nc2cc(F)ccc2n1C1CCN(Cc2nnnn2CCc2ccccc2)CC1.Cl,-65.7
21,CCOc1ccc(N=C2SC(C(=O)O)CC(=O)N2C)cc1 (stereo not drawn),6.71
22,C=CCn1cccc(C(=O)Nc2ccc(C)c(C)c2)c1=O,-71.9

row,SMILES,"hERG current change (%, negative = inhibition) at 10uM [%]"
1,S=c1[nH]nc(C2COc3ccccc3O2)o1 (stereo not drawn),11.7
2,O=C(N/N=C/c1ccccc1OC(F)F)NC1CCCCC1,13.8
3,Cc1ccc(/C=N/NC(=O)c2cc3ccccc3cc2O)o1,-21.4
4,Cc1ccc(-c2nc3s/c(=C\c4ccco4)c(=O)n3n2)cc1,6.09
5,COc1ccccc1NC(=O)CCC(=O)Nc1nnc(C2CCCCC2)s1,12.5
6,CCOC(=O)N1CCN(S(=O)(=O)c2ccc(OC)c(Br)c2)CC1,-7.9
7,CCC(C)[C@H](NC(=O)Nc1ccccc1F)C(=O)O (stereo partly drawn),16.6
8,CC1CC(C)CN(CCCNC(=O)Cn2ncn3cccc3c2=O)C1 (stereo not drawn),-3.29
9,CCCNC(=O)CCn1nc(-c2ccc(C)cc2)c2ccccc2c1=O,-12.5
10,COc1ccc2c(=O)c3c(=O)n(-c4ccc(C)cc4)c(-c4ccccc4)nc3oc2c1,6.84
11,CN(C)N1C(N)=C(C#N)C(c2cccc(Cl)c2)C2=C1CCCC2=O (stereo not drawn),-26.2
12,CC1CCCC(C)N1CCCNC(=O)c1csc2c1CCCCC2 (stereo not drawn),-49.3
13,CNC(=S)N(CCc1c(C)[nH]c2ccc(C)cc12)Cc1cccnc1,-28.2
14,C#CCOCCOCCOCCNc1nc(N2CCN(C(=O)CCCCCCCCCCNC(=O)[C@H](CCCCN)n3cc(C[C@@H](C)CC)nn3)CC2)nc(N2CCN(C(=O)CCCCCCCCCCNC(=O)[C@@H]([C@H](C)O)n3cc(C)nn3)CC2)n1,0.408
15,Cc1ccc(C)c(NC(NC(=O)c2ccccn2)C(Cl)(Cl)Cl)c1 (stereo not drawn),15.7
16,Cl.Fc1ccc(C(c2nnnn2C2CCCC2)N2CCN(Cc3ccncc3)CC2)cc1 (stereo not drawn),-24.8
17,CCOC(=O)c1[nH]nc(-c2c(O)cc(C)cc2O)c1-c1csc(C)n1,11.3
18,Nc1nc2ccccc2n1CCN1CCCC1,6.04
19,Cc1cnc(C(=O)Nc2ccccc2C(=O)N2CCOCC2)cn1,10.8
20,COC(=O)c1ccc(-c2c(-c3ccccc3)ncc3cc(F)ccc23)cc1,7.97
21,COc1cccc(C(=O)Nc2ncc3c(n2)CC(C)CC3=O)c1 (stereo not drawn),7.13
22,Cc1cc[n+](CC(=O)c2ccc(NC(=O)c3ccccc3)cc2)c2ccccc12.[Br-],7.1

row,SMILES,"hERG current change (%, negative = inhibition) at 10uM [%]"
1,CCc1nc(SCC(=O)c2ccc(Cl)s2)c2oc3ccccc3c2n1,8.88
2,NS(=O)(=O)c1ccc(CNS(=O)(=O)c2cccc3nonc23)cc1,16.6
3,COc1ccc(NC(=O)CNC(=O)Cn2ccc3ccccc3c2=O)c(OC)c1,15
4,COc1ccc(/C=C2\SC(=O)N(CCCC(=O)Nc3ccc(C(=O)O)cc3)C2=O)cc1OC,3.58
5,O=C(COC(=O)c1ccc(Cl)c(S(=O)(=O)N2CCCC2)c1)NCc1cccs1,-39.8
6,COc1cccc(C(c2nnnn2Cc2ccco2)N2CCN(c3cccc(C)c3C)CC2)c1OC (stereo not drawn),-3.28
7,CC(C)NC(=O)CCCc1cn(C)c2ccccc12,18.1
8,O=C(NC(Cc1c[nH]c2ccccc12)C(=O)N/N=C/c1ccc(Br)cc1)c1cccs1 (stereo not drawn),8.02
9,CCCCC#Cc1ccccc1CC(=O)Nc1ccccc1,3.96
10,NC(=O)C(=O)N/N=C/c1c[nH]c2ccc(Br)cc12,12.7
11,COc1cccc(N2CCN(C(=O)CN(c3cc(C)cc(C)c3)S(=O)(=O)c3c(C)noc3C)CC2)c1,-0.0706
12,Cc1cc(S(=O)(=O)Nc2ccc(C(=O)N3CCN(c4ccccc4O)CC3)cc2)ccc1F,-5.37
13,O=C(Nc1ccccc1)N(Cc1ccccc1)Cc1ccccc1,-12.4
14,CCNc1c(NCC)c(=O)c1=O,15.2
15,Cc1nnc(SCC(=O)NC2CCCC2)n1-c1ccccc1,1.21
16,CC(C)N1CCC(N2CCN(Cc3cnc(-c4ccccc4)s3)CC2CCO)CC1 (stereo not drawn),-15.6
17,CC(C)CNC(=S)N(Cc1ccco1)Cc1cc2cc3c(cc2[nH]c1=O)OCCO3,3.92
18,Cc1ccc(S(=O)(=O)Cc2ccccc2Cl)cc1,-23.5
19,O=C(/C=C/c1cccc([N+](=O)[O-])c1)OCC(=O)N1CCOCC1,8.64
20,NC(=O)c1cn(-c2ccccc2)nc1-c1cccnc1,-1.67
21,CCc1cc(/C(Cc2ccccn2)=N\O)c(O)cc1O,2.46
